Data on 21 compounds can be found in the antibiotic and cytotoxicity screens of Wong et al. (2023).

For one assay, the system named is HSkMC. In words: cytotoxicity call (relative viability < 0.9). To be noted: 10 µM.
The test system of a further assay is HepG2. Kind of assay: cytotoxicity call (relative viability < 0.9). The settings on record: 10 µM.
The next assay deals with S. aureus RN4220. Kind of assay: growth inhibition call (relative growth <= 0.2). To be noted: 50 µM.

Structures are written as SMILES. Some of the results follow.

In the case of `C[C@@H]1CN([C@H](C)CO)C(=O)CCCn2nncc2CO[C@H]1CN(C)C(=O)c1cc(-c2ccccc2)on1`, the cytotoxicity call in the assay on HSkMC and in the assay with HepG2 was “inactive” throughout. For the same compound, in the assay with S. aureus RN4220, the growth inhibition call was “inactive”.

Turning to `Cc1noc(C)c1NC(=O)Nc1ccc2c(c1)C(=O)N([C@@H](C)CO)C[C@@H](C)[C@H](CN(C)C(=O)Nc1cccc3ccccc13)OCCCC[C@H](C)O2`, the cytotoxicity call in the assay on HSkMC and in the assay with HepG2 was “inactive” in each case. In the assay on S. aureus RN4220, the growth inhibition call was “inactive”.

As to `c1csc([C@@H]2CNCCN2)c1`, the cytotoxicity call in the assay on HSkMC and in the assay on HepG2 was “inactive” each time. Besides, in the assay with S. aureus RN4220, the growth inhibition call was “inactive”.

As for `Cc1ccc(S(=O)(=O)Nc2ccc3c(c2)C(=O)N([C@@H](C)CO)C[C@H](C)[C@H](CN(C)Cc2ccc(C(F)(F)F)cc2)O3)cc1`, the cytotoxicity call in the assay on HSkMC and in the assay with HepG2 was “inactive” in each case. Further, the growth inhibition call with S. aureus RN4220 is “inactive”.

Turning to `C[C@@H]1CN([C@@H](C)CO)C(=O)c2cccc(NC(=O)CCCCCC(=O)Nc3ccccc3N)c2O[C@H]1CN(C)S(C)(=O)=O`, the cytotoxicity call in the assay with HSkMC and in the assay on HepG2 was “inactive” each time. The growth inhibition call in the assay on S. aureus RN4220 is “inactive”.

`Cn1cnc(S(=O)(=O)N2C[C@@H](O)COC[C@H]3O[C@H](CC(=O)NC4CCC4)CC[C@@H]32)c1`: the cytotoxicity call in the assay on HSkMC and in the assay on HepG2 was “inactive” each time. Further, the growth inhibition call in the assay with S. aureus RN4220 was “inactive”.

As to `CC(C)(C)[S@](=O)N1Cc2cc(C(=O)N3CCc4ccccc4C3)nc(-c3cccc(-c4cccnc4)c3)c2[C@@H]1CCO`, the cytotoxicity call with HSkMC and in the assay on HepG2 was “inactive” in each case. Besides, in the assay with S. aureus RN4220, the growth inhibition call was “inactive”.

`C[C@H](CO)N1C[C@H](C)[C@H](CN(C)Cc2ccc(Cl)c(Cl)c2)Oc2ccc(NC(=O)Nc3ccc(F)cc3)cc2C1=O`: the cytotoxicity call in the assay with HSkMC and in the assay on HepG2 was “active” each time. Also, in the assay on S. aureus RN4220, the growth inhibition call was “inactive”.

As for `COc1ccc(-c2cc(=O)c3c(O)cc(O[C@@H]4O[C@H](CO)[C@@H](O)[C@H](O)[C@H]4O[C@@H]4O[C@H](COC(C)=O)[C@@H](O)[C@@H](O)[C@H]4O)c(O)c3o2)cc1`, the cytotoxicity call in the assay with HSkMC and in the assay on HepG2 was “inactive” each time. Further, in the assay on S. aureus RN4220, the growth inhibition call was “inactive”.

As to `COCC#Cc1cnc2c(c1)C(=O)N([C@@H](C)CO)C[C@H](C)[C@H](CN(C)S(=O)(=O)c1ccccc1)O2`, the cytotoxicity call in the assay with HSkMC and in the assay on HepG2 was “inactive” throughout. In addition, in the assay on S. aureus RN4220, the growth inhibition call was “inactive”.

Consider `CCCC1CC(C(=O)NC(C(C)O)C2OC(SC)C(O)C(O)C2O)N(C)C1.Cl` (stereo not drawn), for which the cytotoxicity call in the assay on HSkMC and in the assay on HepG2 was “inactive” in each case. For the same compound, the growth inhibition call in the assay with S. aureus RN4220 was “active”.

For `Cc1noc(C)c1NC(=O)Nc1ccc2c(c1)CC(=O)N([C@H](C)CO)C[C@@H](C)[C@@H](CN(C)Cc1ccc(C(F)(F)F)cc1)O2`, the cytotoxicity call with HSkMC and in the assay on HepG2 was “inactive” throughout. Also, in the assay on S. aureus RN4220, the growth inhibition call is “inactive”.

Take `COc1ccc(N(C(=O)CSc2ncccn2)[C@@H](C(=O)NCCc2ccccc2)c2cccs2)cc1Cl`: the cytotoxicity call with HSkMC and with HepG2 was “inactive” each time. In addition, the growth inhibition call in the assay with S. aureus RN4220 was “inactive”.

With `COCC#Cc1ccc2c(c1)O[C@H](CN(C)S(=O)(=O)c1ccc(OC)cc1)[C@@H](C)CN([C@H](C)CO)S2(=O)=O`, the cytotoxicity call with HSkMC and in the assay on HepG2 was “inactive” throughout. Besides, the growth inhibition call in the assay with S. aureus RN4220 was “inactive”.

With `C[C@@H]1CN([C@@H](C)CO)C(=O)c2c(c3ccccc3n2C)-c2ccccc2CO[C@@H]1CN(C)C(=O)Nc1ccc(-c2ccccc2)cc1`, the cytotoxicity call in the assay with HSkMC and in the assay on HepG2 was “inactive” throughout. Besides, in the assay with S. aureus RN4220, the growth inhibition call is “inactive”.

For `COc1cccc(S(=O)(=O)N(C)C[C@H]2Oc3ncc(-c4cccc(C(=O)N(C)C)c4)cc3C(=O)N([C@H](C)CO)C[C@H]2C)c1`, the cytotoxicity call in the assay with HSkMC and in the assay on HepG2 was “inactive” throughout. The growth inhibition call with S. aureus RN4220 was “inactive”.

Regarding `CO[C@@H]1CN(C)C(=O)c2cc(NC(=O)CC(F)(F)F)ccc2OC[C@@H](C)N(C(=O)C2CCOCC2)C[C@H]1C`, the cytotoxicity call with HSkMC and in the assay with HepG2 was “inactive” in each case. In addition, in the assay on S. aureus RN4220, the growth inhibition call was “inactive”.

Turning to `C[C@@H]1CN([C@H](C)CO)C(=O)c2cccc(NC(=O)Nc3ccc(F)cc3)c2O[C@@H]1CN(C)CC1CCCCC1`, the cytotoxicity call in the assay with HSkMC and in the assay on HepG2 was “inactive” each time. The growth inhibition call with S. aureus RN4220 is “inactive”.

In the case of `CC[C@@H](C)n1[nH]c(=O)cc1N`, the cytotoxicity call in the assay with HSkMC and with HepG2 was “inactive” throughout. Moreover, in the assay on S. aureus RN4220, the growth inhibition call was “inactive”.

For `Cc1noc(C)c1NC(=O)Nc1ccc2c(c1)C(=O)N([C@H](C)CO)C[C@H](C)[C@H](CN(C)Cc1ccc(C(F)(F)F)cc1)OCCCC[C@H](C)O2`, the cytotoxicity call in the assay on HSkMC and in the assay on HepG2 was “inactive” each time. For the same compound, in the assay with S. aureus RN4220, the growth inhibition call was “inactive”.

Take `Cc1noc(C)c1NC(=O)Nc1cccc2c1O[C@H](CN(C)Cc1ccc(Cl)c(Cl)c1)[C@@H](C)CN([C@@H](C)CO)C2=O`: the cytotoxicity call in the assay on HSkMC (human skeletal muscle cells) and with HepG2 was “inactive” throughout. In addition, the growth inhibition call in the assay with S. aureus RN4220 is “inactive”.
